Source: paper PMC3088716
These are yes or no findings as the source states them, for the method shown. In cells and extracts the contact can be indirect. Some binding calls cover weakened binding; strength is not graded here. Where a sequence is shown, tags or fusion partners need not be part of it. Blank lines part the entries; values can stand above or below the binder they belong to.

Tests used:
[1] = biological target: T1, HA-tagged SAEG-2 (C. elegans) (UniProt Q03615); assay: co-IP; FLAG- and HA-tagged proteins co-expressed in Drosophila S2 cells (700 µM copper sulfate, 24 hrs); whole cell lysates in MAPK buffer (10 mM Tris-HCl pH 8.0, 50 mM NaCl, 1 mM EDTA, 1% NP-40); agarose beads with anti-FLAG or anti-HA antibodies, 4°C, 2.5 hrs
T1 sequence: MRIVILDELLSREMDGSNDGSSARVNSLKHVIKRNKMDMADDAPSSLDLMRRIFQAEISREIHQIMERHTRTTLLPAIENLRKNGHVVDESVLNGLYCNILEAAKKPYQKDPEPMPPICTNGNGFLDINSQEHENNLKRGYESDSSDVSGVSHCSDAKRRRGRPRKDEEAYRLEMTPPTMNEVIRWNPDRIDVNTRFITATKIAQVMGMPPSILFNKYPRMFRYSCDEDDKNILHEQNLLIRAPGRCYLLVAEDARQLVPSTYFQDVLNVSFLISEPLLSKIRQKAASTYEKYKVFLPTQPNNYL

[2] = biological target: T2, HA-tagged Dnttip1 (mouse) (UniProt Q99LB0); assay: co-IP; FLAG- and HA-tagged proteins co-expressed in HEK293 cells (harvested 24 hrs after transfection); whole cell lysates in MAPK buffer; agarose beads with anti-FLAG or anti-HA antibodies, 4°C, 2.5 hrs
T2 sequence: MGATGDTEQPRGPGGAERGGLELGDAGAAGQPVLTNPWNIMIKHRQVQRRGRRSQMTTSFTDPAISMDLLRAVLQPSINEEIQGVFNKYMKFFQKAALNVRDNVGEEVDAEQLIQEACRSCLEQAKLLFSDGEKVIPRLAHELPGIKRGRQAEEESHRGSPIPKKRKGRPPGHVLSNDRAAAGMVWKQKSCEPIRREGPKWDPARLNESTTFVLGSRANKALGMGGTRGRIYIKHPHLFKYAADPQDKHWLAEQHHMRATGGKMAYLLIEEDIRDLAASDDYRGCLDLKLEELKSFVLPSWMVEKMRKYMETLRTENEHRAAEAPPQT

binding [1]: binds
B1: FLAG-tagged HDA-2 (enzyme, UniProt Q09440 1-507)
chain: MSSDKFKLDTLFDDNDEIIEPDGADVKKRNVAYYYHKDVGHFHYGQLHPMKPQRLVVCNDLVVSYEMPKYMTVVESPKLDAADISVFHTEDYVNFLQTVTPKLGLTMPDDVLRQFNIGEDCPIFAGLWDYCTLYAGGSVEGARRLNHKMNDIVINWPGGLHHAKKSEASGFCYVNDIVLGILELLKYHKRVLYIDIDIHHGDGVQEAFNNSDRVMTVSFHRFGQYFPGSGSIMDKGVGPGKYFAINVPLMAAIRDEPYLKLFESVISGVEENFNPEAIVLQCGSDSLCEDRLGQFALSFNAHARAVKYVKSLGKPLMVLGGGGYTLRNVARCWALETGVILGLRMDDEIPGTSLYSHYFTPRLLRPNLVPKMNDANSAAYLASIEKETLACLRMIRGAPSVQMQNIVGIRLDEIEQIEENERLQKSSKSSIEYEVGKVSEKMEEECFVEEDSKPPSFPPGQDPRRIGQYWGYDRSGLAPPRSHSDVIEEAKYEDRDRRKDLNIPGIP

binding [2]: binds
B2: FLAG-tagged ZNF541 (protein, UniProt Q0GGX2 1-1363)
chain: MEPYSLGEEGALPSEGHLPSFSESQVLNCSDTLNRDLGPSTRDLLYAGLSGLDLDPSLSTSDMPSEVLEDNLDTLSLYSGKDSDSVKLLEEYADSESQTSLQDLGLGALKVPKEADEGGRATGSTRKGKRQHSSPQNPLLDCSLCGKVFSSASSLSKHYLTHSQERKHVCKVCSKAFKRQDHLTGHMLTHQKTKPFVCIEQGCSKSYCDYRSLRRHYEVQHGVCILKETPPEEEAYGDPTHNHDVANQPPPSGLRSLGPPEARSPGSVLPNRDLLRCIVSSIVHQKIPSPGPAVGPSDTEARSSACACPTSLGSSSCTPASTPVALGTLGSEIPEETHPPRKEAATEVFTPVQSRAAENGVPDPPESELESESPRLQRPSSLEGWPEGSSLPACLPLFRGHSVPSGSQPSSHNFQWLRNLPGCPKNKGSNVFMVHKPPAVASREGSEGGGSGPSSTPTSVEPSPSLGTTQEELLPFPPALLKAPGEASSEVRQAAGEDETWAPKKCKPDCESFPWQSPTELGLQDAQNPGGLPSDATPLFRQLFMKSQESLVSHEQMQVLQMIAKSQRIFSHTQVATASAQRPGPEGKQSTLKPLQGPWPPQTLPPAPTVDSFQIGPGHSEPEGSPVRRRKTMPAVSRETSPGGPRRDTKGGPKVASAPPSLTGPGLLPSRNPDSSSLAKGTLDLGDIIPNAGSRQSQLGGDEPAGTQLVGKQGQGENGLASGAMRGEKGPACPRGGGYRLFSGHPRAQRFSGFRKEKVKMDVCCAASPSQVAMASFSSAGPLADPPRDMKSKLTIFNRIQGGNIYRLPHPVKEESLAGGCHQPNGGPTDWMESKSTFVCKNCSQMFYTEKGLSSHMCFHSDQWPSPRGKQEQQVKGQMVASVKRKAGREEGAVEDMKRHYDCSSSEPQDVTILSMLVSSGSCGVTPVVLSSLLQGQEKDGEERDSKESCQYRKRKKRPQPKALFAPPAPSALGEPGPGGCHQSCLHSPVFLVDHLLKGLFQCSPYTPPPMLSPIREGSGLYFNTLCSTSRAGPHLISPVLDQVDSSFGICVVKDDTKISIEPHINVGSRFQAEIPELQERLLARVDENVASLVWKPWGDVMTNPETQDRVMELCNVACSSVMPGGGTNLELALHCLHDAQGSVQVALETLLLRGPQKPRTHPLADYRYTGSDIWTPMEKRLFKKAFCAHKKDFYLIHKMIQTKSVAQCVEYYYIWKKMVKFDCGRAPGLEKRGRRELDEVERTEDKVTCSPRERPTHRPTPELKIKTKSYRRESILHSSPSAAPKRTPEPPGSVESQGVFPCRECERVFDKIKSRNAHMKRHRLQEHVEPVRVKWPVKPYPLKEEEEEEEEELGADMGPLQW

binding [2]: binds
B3: FLAG-tagged TRERF1 (protein, UniProt Q96PN7 1-1200)
chain: MGDQQLYKTNHVAHGSENLFYQQPPLGVHSGLNHNYGNAVTGGGMDAPQASPISPHFPQDTRDGLGLPVGSKNLGQMDTSRQGGWGSHAGPGNHVQLRGNLANSNMMWGAPAQAEPTDGYQYTYSQASEIRTQKLTSGVLHKLDSFTQVFANQNLRIQVNNMAQVLHTQSAVMDGAPDSALRQLLSQKPMEPPAPAIPSRYQQVPQQPHPGFTGGLSKPALQVGQHPTQGHLYYDYQQPLAQVPVQGGQPLQAPQMLSQHMQQMQQHQYYPPQQQQQAGQQRISMQEIQTQPQQIRPSQPQPPPQQQQPQQLQLQQRQGSMQIPQYYQPQPMMQHLQEQQQQQMHLQPPSYHRDPHQYTPEQAHTVQLIPLGSMSQYYYQEPQQPYSHPLYQQSHLSQHQQREDSQLKTYSSDRQAQAMLSSHGDLGPPDTGMGDPASSDLTRVSSTLPHRPLLSPSGIHLNNMGPQHQQLSPSAMWPQMHLPDGRAQPGSPESSGQPKGAFGEQFDAKNKLTCSICLKEFKNLPALNGHMRSHGGMRASPNLKQEEGEKVLPPQPQPPLPPPPPPPPPPQLPPEAESLTPMVMPVSVPVKLLPPKPSSQGFTNSTVAAPSARDKPASSMSDDEMPVLEIPRKHQPSVPKAEEPLKTVQEKKKFRHRPEPLFIPPPPSYNPNPAASYSGATLYQSQLRSPRVLGDHLLLDPTHELPPYTPPPMLSPVRQGSGLFSNVLISGHGPGAHPQLPLTPLTPTPRVLLCRSNSIDGSNVTVTPGPGEQTVDVEPRINIGLRFQAEIPELQDISALAQDTHKATLVWKPWPELENHDLQQRVENLLNLCCSSALPGGGTNSEFALHSLFEAKGDVMVALEMLLLRKPVRLKCHPLANYHYAGSDKWTSLERKLFNKALATYSKDFIFVQKMVKSKTVAQCVEYYYTWKKIMRLGRKHRTRLAEIIDDCVTSEEEEELEEEEEEDPEEDRKSTKEEESEVPKSPEPPPVPVLAPTEGPPLQALGQPSGSFICEMPNCGAVFSSRQALNGHARIHGGTNQVTKARGAIPSGKQKPGGTQSGYCSVKSSPSHSTTSGETDPTTIFPCKECGKVFFKIKSRNAHMKTHRQQEEQQRQKAQKAAFAAEMAATIERTTGPVGAPGLLPLDQLSLIKPIKDVDILDDDVVQQLGGVMEEAEVVDTDLLLDDQDSVLLQGDAEL
